About 220 (0.56%) of roughly 39,000 compounds showed activity. This is one part of the list.
System: Escherichia coli K-12 BW25113
Test: relative growth (OD600 normalised to plate interquartile mean) (fraction); higher = less growth inhibition, active = 0.2 or less
Settings: 50 µM; LB; incubation time: overnight (16-24 h)
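Note: static incubation at 37 °C against the wild-type strain, values averaged over two biological replicates.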

SMILES | relative growth
C[C@H](CO)N1C[C@H](C)[C@@H](CN(C)C(=O)Nc2ccc3c(c2)OCO3)Oc2ccc(NC(=O)Nc3ccc(C(F)(F)F)cc3)cc2C1=O | inactive: 0.991
COCCOC(=O)N1C(=O)[C@@]2(c3cc(C#CCCO)ccc31)[C@H](c1ccccc1OCCO)N1[C@H](c3ccccc3)[C@H](c3ccccc3)OC(=O)[C@H]1[C@@H]2C(=O)Nc1nc2ccccc2s1 | inactive: 1.02
C[C@H](CO)N1C[C@H](C)[C@H](CN(C)S(=O)(=O)c2cccs2)OCCCC[C@H](C)Oc2ccc(NC(=O)CCC(F)(F)F)cc2C1=O | inactive: 0.997
C[C@@H]1CCCCO[C@H](CN(C)CC2CCCCC2)[C@H](C)CN([C@@H](C)CO)C(=O)c2cc(NC(=O)Nc3cccc4ccccc34)ccc2O1 | inactive: 0.967
O=C(C[C@H]1NCCNC1=O)Nc1ccc2c(c1)OCCO2 | inactive: 0.966
C[C@H](CO)N1C[C@H](C)[C@H](CN(C)Cc2ccc(-c3ccccc3)cc2)Oc2ccc(NC(=O)c3ccncc3)cc2C1=O | inactive: 1.02
COc1ccc(CN(C)C[C@H]2OCCCC[C@@H](C)Oc3ccc(NC(=O)Nc4ccc(F)cc4)cc3C(=O)N([C@@H](C)CO)C[C@H]2C)cc1 | inactive: 0.979
Cc1cccc(C)c1NC(=O)c1cc(S(N)(=O)=O)c(Cl)cc1O | inactive: 0.974
CCS(=O)(=O)Nc1ccc2c(c1)C(=O)N(C)C[C@H](OC)[C@H](C)CN(CCC(F)(F)F)[C@@H](C)CO2 | inactive: 1.02
CCO[C@H]1OC(C(=O)N2CCN(Cc3ccc4c(c3)OCO4)CC2)=C[C@@H](C)[C@@H]1CCCOC(=O)NCCCCCC(=O)NO | inactive: 0.996
O=C(C[C@@H]1C[C@H]2c3cc(NC(=O)C4CCOCC4)ccc3O[C@H]2[C@H](CO)O1)NCc1cc(F)ccc1F | inactive: 0.985
C[C@@H]1CCCCO[C@H](CN(C)C(=O)Nc2cccc3ccccc23)[C@H](C)CN([C@H](C)CO)C(=O)c2cc(NS(=O)(=O)c3cccs3)ccc2O1 | inactive: 1.03
C[C@@H]1CCCCO[C@@H](CN(C)C(=O)Nc2ccc(C(F)(F)F)cc2)[C@H](C)CN([C@@H](C)CO)C(=O)c2cc(NC(=O)Nc3cccc4ccccc34)ccc2O1 | inactive: 1.01
CN(C)CCC=C1c2ccccc2C=Cc2ccccc21.Cl | inactive: 0.82
COc1cccc(C#Cc2ccc3c(c2)O[C@H](CN(C)C(=O)c2ccccn2)[C@H](C)CN([C@@H](C)CO)S3(=O)=O)c1 | inactive: 1.01
CO[C@H](C(=O)N(C)C[C@H]1OCc2ccccc2-c2c(n(C)c3ccccc23)C(=O)N([C@H](C)CO)C[C@H]1C)c1ccccc1 | inactive: 1
Cc1ccc(S(=O)(=O)Nc2ccc3c(c2)C(=O)N([C@H](C)CO)C[C@H](C)[C@H](CN(C)C(=O)Nc2ccccc2)OCCCC[C@H](C)O3)cc1 | inactive: 1.03
COc1ccc(NC(=O)Nc2ccc3c(c2)C(=O)N([C@@H](C)CO)C[C@H](C)[C@@H](CN(C)C(=O)Cc2ccccc2)OCCCC[C@@H](C)O3)cc1 | inactive: 1.02

SMILES | relative growth
Cc1noc(C)c1S(=O)(=O)Nc1ccc2c(c1)C(=O)N([C@H](C)CO)C[C@H](C)[C@H](CN(C)S(=O)(=O)c1cn(C)cn1)OCCCC[C@H](C)O2 | inactive: 0.975
COc1ccc2cc1Oc1ccc(cc1)CC1c3c(cc4c(c3Oc3cc5c(cc3OC)CCN(C)C5C2)OCO4)CCN1C (stereo not given) | inactive: 0.844
Cc1noc(C)c1NC(=O)Nc1ccc2c(c1)CC(=O)N([C@@H](C)CO)C[C@H](C)[C@@H](CN(C)CC1CC1)O2 | inactive: 1
COC(=O)[C@H]1[C@H](CO)[C@H]2Cn3c(cccc3=O)[C@H]2N1C(=O)C1CC1 | inactive: 0.997
C[C@@H]1CN([C@@H](C)CO)C(=O)c2cccc(NS(=O)(=O)c3cccs3)c2O[C@@H]1CN(C)Cc1ccc(Oc2ccccc2)cc1 | inactive: 1
C[C@H](CO)N1C[C@H](C)[C@@H](CN(C)Cc2ccc(Oc3ccccc3)cc2)Oc2ncc(-c3ccncc3)cc2C1=O | inactive: 1.01
Cc1noc(C)c1NC(=O)Nc1ccc2c(c1)CC(=O)N([C@@H](C)CO)C[C@@H](C)[C@H](CN(C)S(C)(=O)=O)O2 | inactive: 1.01
COc1ccc(S(=O)(=O)N(C)C[C@H]2Oc3ncc(Br)cc3C(=O)N([C@@H](C)CO)C[C@@H]2C)cc1 | inactive: 1.02
C[C@@H]1CN([C@@H](C)CO)C(=O)c2cc(NC(=O)C3CC3)ccc2O[C@@H]1CN(C)S(=O)(=O)c1ccc(F)cc1 | inactive: 0.972
C[C@H](CO)N1C[C@H](C)[C@H](CN(C)C(=O)C2CCC2)Oc2cc(C#Cc3ccncc3)ccc2S1(=O)=O | inactive: 0.998
COc1ccc(S(=O)(=O)Nc2ccc3c(c2)C(=O)N([C@@H](C)CO)C[C@@H](C)[C@@H](CN(C)Cc2ccc4c(c2)OCO4)OCCCC[C@@H](C)O3)cc1 | inactive: 0.95
CC(C)NC(=O)N(C)C[C@@H]1Oc2ccc(NC(=O)Nc3ccc4c(c3)OCO4)cc2CC(=O)N([C@H](C)CO)C[C@H]1C | inactive: 1.03
COCCOC(=O)N1C(=O)[C@@]2(c3cc(C#CCNC(N)=O)ccc31)[C@H](C(=O)N1CCc3cc(OC)c(OC)cc3C1)[C@H]1C(=O)O[C@H](c3ccccc3)[C@H](c3ccccc3)N1[C@@H]2c1ccc(OCCO)cc1 | inactive: 1.05
COc1ccc([C@@H]2CC(=O)c3c(O)cc(O[C@@H]4O[C@H](CO)[C@@H](O)[C@H](O)[C@H]4O[C@@H]4O[C@@H](C)[C@H](O)[C@@H](O)[C@H]4O)cc3O2)cc1O | inactive: 1
C[C@@H]1CN([C@H](C)CO)C(=O)c2cc(NS(=O)(=O)c3ccccc3)ccc2O[C@@H](C)CCCCO[C@@H]1CN(C)C(=O)CCC(F)(F)F | inactive: 0.989
C[C@@H]1CN([C@H](C)CO)C(=O)c2cc(C#CCc3ccccc3)cnc2O[C@H]1CN(C)C(=O)C1CCOCC1 | inactive: 1
C[C@@H]1CN([C@@H](C)CO)C(=O)c2cc(C#Cc3cccc(F)c3)cnc2O[C@@H]1CN(C)Cc1ccccn1 | inactive: 1.01

Source: the supplement of paper PMC9446081
